The supplement of paper PMC8728848
This is one part of the list.

Experiments:
Assay in all cases: glycan array binding signal (z-score within array); higher = stronger binding
Details in all cases: glycan notation: IUPAC condensed, linker removed
Fuc(a1-2)Gal = target: Fuc(a1-2)Gal
In short: (§1)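 The binding signal is a Z-score computed within each array and averaged over linkers. Arrays of the same protein sequence at different concentrations or buffers were also averaged together. Data originate from 3228 arrays in the Consortium for Functional Glycomics database, kept only where the protein sequence was available.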

Fuc(a1-2)Gal(b1-3)GalNAc = target: Fuc(a1-2)Gal(b1-3)GalNAc
In short: as §1

[1] = target: Fuc(a1-2)Gal(b1-3)GalNAc(a1-3)[Fuc(a1-2)]Gal(b1-4)Glc
In short: as §1

[2] = target: Fuc(a1-2)Gal(b1-3)GalNAc(a1-3)[Fuc(a1-2)]Gal(b1-4)GlcNAc
In short: as §1

[3] = target: Fuc(a1-2)Gal(b1-3)GalNAc(b1-3)Gal
In short: as §1

[4] = target: Fuc(a1-2)Gal(b1-3)GalNAc(b1-3)Gal(a1-4)Gal(b1-4)Glc
In short: as §1

[5] = target: Fuc(a1-2)Gal(b1-3)GalNAc(b1-4)[Neu5Ac(a2-3)]Gal(b1-4)Glc
In short: as §1

Fuc(a1-2)Gal(b1-3)GlcNAc = target: Fuc(a1-2)Gal(b1-3)GlcNAc
In short: as §1

[6] = target: Fuc(a1-2)Gal(b1-3)GlcNAc(b1-2)Man(a1-3)[Fuc(a1-2)Gal(b1-3)GlcNAc(b1-2)Man(a1-6)]Man(b1-4)GlcNAc(b1-4)GlcNAc
In short: as §1

[7] = target: Fuc(a1-2)Gal(b1-3)GlcNAc(b1-2)Man(a1-3)[Fuc(a1-2)Gal(b1-3)GlcNAc(b1-2)Man(a1-6)]Man(b1-4)GlcNAc(b1-4)[Fuc(a1-6)]GlcNAc
In short: as §1

[8] = target: Fuc(a1-2)Gal(b1-3)GlcNAc(b1-3)Gal(b1-4)Glc
In short: as §1

[9] = target: Fuc(a1-2)Gal(b1-3)GlcNAc(b1-3)GalNAc
In short: as §1

[10] = target: Fuc(a1-2)Gal(b1-3)GlcNAc(b1-3)[Fuc(a1-2)Gal(b1-3)GlcNAc(b1-6)]GalNAc
In short: as §1

[11] = target: Fuc(a1-2)Gal(b1-3)GlcNAc(b1-3)[Gal(b1-4)GlcNAc(b1-6)]Gal(b1-4)Glc
In short: as §1

[12] = target: Fuc(a1-2)Gal(b1-3)GlcNAc(b1-3)[Neu5Ac(a2-6)Gal(b1-4)GlcNAc(b1-6)]Gal(b1-4)Glc
In short: as §1

[13] = target: Fuc(a1-2)Gal(b1-3)GlcNAc6S
In short: as §1

[14] = target: Fuc(a1-2)Gal(b1-3)[Fuc(a1-4)]GlcNAc
In short: as §1

[15] = target: Fuc(a1-2)Gal(b1-3)[Fuc(a1-4)]GlcNAc(b1-2)Man(a1-3)[Fuc(a1-2)Gal(b1-3)[Fuc(a1-4)]GlcNAc(b1-2)Man(a1-3)]Man(b1-4)GlcNAc(b1-4)GlcNAc
In short: as §1

[16] = target: Fuc(a1-2)Gal(b1-3)[Fuc(a1-4)]GlcNAc(b1-2)Man(a1-3)[Fuc(a1-2)Gal(b1-3)[Fuc(a1-4)]GlcNAc(b1-2)Man(a1-6)]Man(b1-4)GlcNAc(b1-4)[Fuc(a1-6)]GlcNAc(b1-4)[Fuc(a1-6)]GlcNAc
In short: as §1

[17] = target: Fuc(a1-2)Gal(b1-3)[Fuc(a1-4)]GlcNAc(b1-3)[Fuc(a1-3)[Gal(b1-4)]GlcNAc(b1-6)]Gal(b1-4)Glc
In short: as §1

[18] = target: Fuc(a1-2)Gal(b1-3)[Fuc(a1-4)]GlcNAc(b1-3)[Gal(b1-4)GlcNAc(b1-6)]Gal(b1-4)Glc
In short: as §1

Fuc(a1-2)Gal(b1-4)Glc = target: Fuc(a1-2)Gal(b1-4)Glc
In short: as §1

Fuc(a1-2)Gal(b1-4)Glc6S = target: Fuc(a1-2)Gal(b1-4)Glc6S
In short: as §1

Fuc(a1-2)Gal(b1-4)GlcNAc = target: Fuc(a1-2)Gal(b1-4)GlcNAc
In short: as §1

[19] = target: Fuc(a1-2)Gal(b1-4)GlcNAc(b1-2)Man
In short: as §1

[20] = target: Fuc(a1-2)Gal(b1-4)GlcNAc(b1-2)Man(a1-3)[Fuc(a1-2)Gal(b1-4)GlcNAc(b1-2)Man(a1-6)]Man(b1-4)GlcNAc(b1-4)GlcNAc
In short: as §1

[21] = target: Fuc(a1-2)Gal(b1-4)GlcNAc(b1-2)Man(a1-3)[Fuc(a1-2)Gal(b1-4)GlcNAc(b1-2)Man(a1-6)]Man(b1-4)GlcNAc(b1-4)[Fuc(a1-6)]GlcNAc
In short: as §1

[22] = target: Fuc(a1-2)Gal(b1-4)GlcNAc(b1-2)[Fuc(a1-2)Gal(b1-4)GlcNAc(b1-4)]Man(a1-3)[Fuc(a1-2)Gal(b1-4)GlcNAc(b1-2)Man(a1-6)]Man(b1-4)GlcNAc(b1-4)GlcNAc
In short: as §1

[23] = target: Fuc(a1-2)Gal(b1-4)GlcNAc(b1-3)Gal(b1-4)GlcNAc
In short: as §1

[24] = target: Fuc(a1-2)Gal(b1-4)GlcNAc(b1-3)Gal(b1-4)GlcNAc(b1-2)Man(a1-3)[Fuc(a1-2)Gal(b1-4)GlcNAc(b1-3)Gal(b1-4)GlcNAc(b1-2)Man(a1-6)]Man(b1-4)GlcNAc(b1-4)GlcNAc
In short: as §1

B1: TIM1 (protein)
chain: ADGIQSVKVGGEAGPSVTLPCHYSGAVTSMCWNRGSCSLFTCQNGIVWTNGTHVTYRKDTRYKLLGDLSRRDVSLTIENTAVSDSGVYCCRVEHRGWFNDMKITVSLEIVPPHHHHHH
- glycan array binding signal (z-score) (Fuc(a1-2)Gal): -0.095
- glycan array binding signal (z-score) (Fuc(a1-2)Gal(b1-3)GalNAc): -0.179
- glycan array binding signal (z-score) [1]: -0.288
- glycan array binding signal (z-score) [2]: -0.281
- glycan array binding signal (z-score) [3]: 0.033
- glycan array binding signal (z-score) [4]: -0.224
- glycan array binding signal (z-score) [5]: -0.249
- glycan array binding signal (z-score) (Fuc(a1-2)Gal(b1-3)GlcNAc): -0.162
- glycan array binding signal (z-score) [6]: -0.194
- glycan array binding signal (z-score) [7]: -0.132
- glycan array binding signal (z-score) [8]: -0.236
- glycan array binding signal (z-score) [9]: -0.153
- glycan array binding signal (z-score) [10]: 0.122
- glycan array binding signal (z-score) [11]: -0.272
- glycan array binding signal (z-score) [12]: -0.234
- glycan array binding signal (z-score) [13]: 0.045
- glycan array binding signal (z-score) [14]: -0.2
- glycan array binding signal (z-score) [15]: -0.011
- glycan array binding signal (z-score) [16]: 0.072
- glycan array binding signal (z-score) [17]: -0.272
- glycan array binding signal (z-score) [18]: -0.253
- glycan array binding signal (z-score) (Fuc(a1-2)Gal(b1-4)Glc): -0.139
- glycan array binding signal (z-score) (Fuc(a1-2)Gal(b1-4)Glc6S): -0.085
- glycan array binding signal (z-score) (Fuc(a1-2)Gal(b1-4)GlcNAc): -0.205
- glycan array binding signal (z-score) [19]: -0.282
- glycan array binding signal (z-score) [20]: -0.202
- glycan array binding signal (z-score) [21]: -0.244
- glycan array binding signal (z-score) [22]: 0.063
- glycan array binding signal (z-score) [23]: -0.308
- glycan array binding signal (z-score) [24]: 0.01
